{"source": "the supplement of paper PMC8728848", "test_in_all_cases": "glycan array binding signal (z-score within array); higher = stronger binding", "settings_in_all_cases": "glycan notation: IUPAC condensed, linker removed", "key": {"[1]": {"target": "Man(a1-2)Man(a1-3)[Man(a1-2)Man(a1-6)]Man(a1-6)[Man(a1-2)Man(a1-2)Man(a1-3)]Man(b1-4)GlcNAc(b1-4)GlcNAc", "in_short": "(§1)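 The binding signal is a Z-score computed within each array and averaged over linkers. Arrays of the same protein sequence at different concentrations or buffers were also averaged together. Data originate from 3228 arrays in the Consortium for Functional Glycomics database, kept only where the protein sequence was available.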"}, "[2]": {"target": "Man(a1-2)Man(a1-3)[Man(a1-6)]Man(a1-6)[Man(a1-2)Man(a1-3)]Man(b1-4)GlcNAc(b1-4)GlcNAc", "in_short": "as §1"}, "[3]": {"target": "Man(a1-2)Man(a1-6)[Man(a1-3)]Man(a1-6)[Man(a1-2)Man(a1-2)Man(a1-3)]Man", "in_short": "as §1"}, "[4]": {"target": "Man(a1-2)Man(a1-6)[Man(a1-3)]Man(a1-6)[Man(a1-2)Man(a1-2)Man(a1-3)]Man(b1-4)GlcNAc(b1-4)GlcNAc", "in_short": "as §1"}, "[5]": {"target": "Man(a1-3)[Man(a1-6)]Man", "in_short": "as §1"}, "[6]": {"target": "Man(a1-3)[Man(a1-6)]Man(a1-6)[Man(a1-2)Man(a1-3)]Man(b1-4)GlcNAc(b1-4)GlcNAc", "in_short": "as §1"}, "[7]": {"target": "Man(a1-3)[Man(a1-6)]Man(a1-6)[Man(a1-3)]Man", "in_short": "as §1"}, "[8]": {"target": "Man(a1-3)[Man(a1-6)]Man(a1-6)[Man(a1-3)]Man(b1-4)GlcNAc(b1-4)GlcNAc", "in_short": "as §1"}, "[9]": {"target": "Man(a1-3)[Man(a1-6)]Man(b1-4)GlcNAc(b1-4)GlcNAc", "in_short": "as §1"}, "[10]": {"target": "Man(a1-6)Man", "in_short": "as §1"}, "[11]": {"target": "Man(b1-4)GlcNAc", "in_short": "as §1"}, "[12]": {"target": "Neu5Ac(a2-3)Gal", "in_short": "as §1"}, "[13]": {"target": "Neu5Ac(a2-3)Gal(b1-3)GalNAc", "in_short": "as §1"}, "[14]": {"target": "Neu5Ac(a2-3)Gal(b1-3)GalNAc(b1-3)Gal(a1-4)Gal(b1-4)Glc", "in_short": "as §1"}, "[15]": {"target": "Neu5Ac(a2-3)Gal(b1-3)GalNAc(b1-4)[Neu5Ac(a2-3)]Gal(b1-4)Glc", "in_short": "as §1"}, "[16]": {"target": "Neu5Ac(a2-3)Gal(b1-3)GalNAc(b1-4)[Neu5Ac(a2-8)Neu5Ac(a2-3)]Gal(b1-4)Glc", "in_short": "as §1"}, "[17]": {"target": "Neu5Ac(a2-3)Gal(b1-3)GalNAc6S", "in_short": "as §1"}, "[18]": {"target": "Neu5Ac(a2-3)Gal(b1-3)GlcNAc", "in_short": "as §1"}, "[19]": {"target": "Neu5Ac(a2-3)Gal(b1-3)GlcNAc(b1-2)Man(a1-3)[Neu5Ac(a2-3)Gal(b1-3)GlcNAc(b1-2)Man(a1-6)]Man(b1-4)GlcNAc(b1-4)GlcNAc", "in_short": "as §1"}, "[20]": {"target": "Neu5Ac(a2-3)Gal(b1-3)GlcNAc(b1-3)Gal(b1-3)GlcNAc", "in_short": "as §1"}, "[21]": {"target": "Neu5Ac(a2-3)Gal(b1-3)GlcNAc(b1-3)Gal(b1-4)GlcNAc", "in_short": "as §1"}, "[22]": {"target": "Neu5Ac(a2-3)Gal(b1-3)GlcNAc(b1-3)GalNAc", "in_short": "as §1"}, "[23]": {"target": "Neu5Ac(a2-3)Gal(b1-3)GlcNAc6S", "in_short": "as §1"}, "[24]": {"target": "Neu5Ac(a2-3)Gal(b1-3)[Fuc(a1-4)]GlcNAc", "in_short": "as §1"}, "[25]": {"target": "Neu5Ac(a2-3)Gal(b1-3)[Fuc(a1-4)]GlcNAc(b1-3)Gal(b1-3)[Fuc(a1-4)]GlcNAc", "in_short": "as §1"}, "[26]": {"target": "Neu5Ac(a2-3)Gal(b1-3)[Fuc(a1-4)]GlcNAc(b1-3)Gal(b1-4)[Fuc(a1-3)]GlcNAc", "in_short": "as §1"}, "[27]": {"target": "Neu5Ac(a2-3)Gal(b1-3)[Neu5Ac(a2-3)Gal(b1-4)]GlcNAc", "in_short": "as §1"}, "[28]": {"target": "Neu5Ac(a2-3)Gal(b1-3)[Neu5Ac(a2-6)]GalNAc", "in_short": "as §1"}, "[29]": {"target": "Neu5Ac(a2-3)Gal(b1-4)Glc", "in_short": "as §1"}, "[30]": {"target": "Neu5Ac(a2-3)Gal(b1-4)GlcNAc", "in_short": "as §1"}, "[31]": {"target": "Neu5Ac(a2-3)Gal(b1-4)GlcNAc(b1-2)Man(a1-3)[GlcNAc(b1-2)Man(b1-4)GlcNAc(b1-2)Man(a1-6)]Man(b1-4)GlcNAc(b1-4)GlcNAc", "in_short": "as §1"}, "[32]": {"target": "Neu5Ac(a2-3)Gal(b1-4)GlcNAc(b1-2)Man(a1-3)[Neu5Ac(a2-6)Gal(b1-4)GlcNAc(b1-2)Man(a1-6)]Man(b1-4)GlcNAc(b1-4)GlcNAc", "in_short": "as §1"}, "[33]": {"target": "Neu5Ac(a2-3)Gal(b1-4)GlcNAc(b1-3)Gal", "in_short": "as §1"}, "[34]": {"target": "Neu5Ac(a2-3)Gal(b1-4)GlcNAc(b1-3)Gal(b1-3)GlcNAc", "in_short": "as §1"}, "[35]": {"target": "Neu5Ac(a2-3)Gal(b1-4)GlcNAc(b1-3)Gal(b1-4)GlcNAc", "in_short": "as §1"}, "[36]": {"target": "Neu5Ac(a2-3)Gal(b1-4)GlcNAc(b1-3)Gal(b1-4)GlcNAc(b1-3)Gal(b1-4)GlcNAc", "in_short": "as §1"}, "[37]": {"target": "Neu5Ac(a2-3)Gal(b1-4)GlcNAc(b1-3)Gal(b1-4)[Fuc(a1-3)]GlcNAc", "in_short": "as §1"}, "[38]": {"target": "Neu5Ac(a2-3)Gal(b1-4)GlcNAc(b1-3)GalNAc", "in_short": "as §1"}, "[39]": {"target": "Neu5Ac(a2-3)Gal(b1-4)GlcNAc(b1-6)[Gal(b1-3)]GalNAc", "in_short": "as §1"}, "[40]": {"target": "Neu5Ac(a2-3)Gal(b1-4)GlcNAc(b1-6)[Neu5Ac(a2-3)Gal(b1-3)]GalNAc", "in_short": "as §1"}, "[41]": {"target": "Neu5Ac(a2-3)Gal(b1-4)GlcNAc6S", "in_short": "as §1"}, "[42]": {"target": "Neu5Ac(a2-3)Gal(b1-4)[Fuc(a1-3)]GlcNAc", "in_short": "as §1"}, "[43]": {"target": "Neu5Ac(a2-3)Gal(b1-4)[Fuc(a1-3)]GlcNAc(b1-3)Gal", "in_short": "as §1"}, "[44]": {"target": "Neu5Ac(a2-3)Gal(b1-4)[Fuc(a1-3)]GlcNAc(b1-3)Gal(b1-4)GlcNAc", "in_short": "as §1"}, "[45]": {"target": "Neu5Ac(a2-3)Gal(b1-4)[Fuc(a1-3)]GlcNAc(b1-3)Gal(b1-4)[Fuc(a1-3)]GlcNAc(b1-3)Gal(b1-4)[Fuc(a1-3)]GlcNAc", "in_short": "as §1"}}, "note": "Some of the results follow."}
{"binder": "Gal 2 (Canis lupus) (protein) MSGKFEVMNMDMKLGGTLKIKGKIAGDADGFVINLGQGSDKLNLHFNPRFHESVIVCNSRNWGQEQRDKHMCFSPGSEVKFTVTFENDGFKVKLPDGHQLTFPNRLGHSHLSYLGVQGGLKVSSFKIE", "values": [{"measurement": "glycan array binding signal (z-score)", "setting": "[1]", "value": 0.092}, {"measurement": "glycan array binding signal (z-score)", "setting": "[2]", "value": -0.735}, {"measurement": "glycan array binding signal (z-score)", "setting": "[3]", "value": 0.302}, {"measurement": "glycan array binding signal (z-score)", "setting": "[4]", "value": -0.463}, {"measurement": "glycan array binding signal (z-score)", "setting": "[5]", "value": 0.15}, {"measurement": "glycan array binding signal (z-score)", "setting": "[6]", "value": -0.345}, {"measurement": "glycan array binding signal (z-score)", "setting": "[7]", "value": -0.065}, {"measurement": "glycan array binding signal (z-score)", "setting": "[8]", "value": -0.214}, {"measurement": "glycan array binding signal (z-score)", "setting": "[9]", "value": -0.061}, {"measurement": "glycan array binding signal (z-score)", "setting": "[10]", "value": -0.326}, {"measurement": "glycan array binding signal (z-score)", "setting": "[11]", "value": -0.139}, {"measurement": "glycan array binding signal (z-score)", "setting": "[12]", "value": 0.689}, {"measurement": "glycan array binding signal (z-score)", "setting": "[13]", "value": -0.086}, {"measurement": "glycan array binding signal (z-score)", "setting": "[14]", "value": -0.101}, {"measurement": "glycan array binding signal (z-score)", "setting": "[15]", "value": -0.014}, {"measurement": "glycan array binding signal (z-score)", "setting": "[16]", "value": 0.337}, {"measurement": "glycan array binding signal (z-score)", "setting": "[17]", "value": -0.111}, {"measurement": "glycan array binding signal (z-score)", "setting": "[18]", "value": 0.407}, {"measurement": "glycan array binding signal (z-score)", "setting": "[19]", "value": 0.072}, {"measurement": "glycan array binding signal (z-score)", "setting": "[20]", "value": -0.352}, {"measurement": "glycan array binding signal (z-score)", "setting": "[21]", "value": 0.086}, {"measurement": "glycan array binding signal (z-score)", "setting": "[22]", "value": -0.177}, {"measurement": "glycan array binding signal (z-score)", "setting": "[23]", "value": -0.175}, {"measurement": "glycan array binding signal (z-score)", "setting": "[24]", "value": 0.016}, {"measurement": "glycan array binding signal (z-score)", "setting": "[25]", "value": 0.124}, {"measurement": "glycan array binding signal (z-score)", "setting": "[26]", "value": -0.151}, {"measurement": "glycan array binding signal (z-score)", "setting": "[27]", "value": -0.369}, {"measurement": "glycan array binding signal (z-score)", "setting": "[28]", "value": -0.184}, {"measurement": "glycan array binding signal (z-score)", "setting": "[29]", "value": 0.104}, {"measurement": "glycan array binding signal (z-score)", "setting": "[30]", "value": -0.246}, {"measurement": "glycan array binding signal (z-score)", "setting": "[31]", "value": -0.222}, {"measurement": "glycan array binding signal (z-score)", "setting": "[32]", "value": -0.113}, {"measurement": "glycan array binding signal (z-score)", "setting": "[33]", "value": -0.271}, {"measurement": "glycan array binding signal (z-score)", "setting": "[34]", "value": -0.11}, {"measurement": "glycan array binding signal (z-score)", "setting": "[35]", "value": 0.01}, {"measurement": "glycan array binding signal (z-score)", "setting": "[36]", "value": -0.248}, {"measurement": "glycan array binding signal (z-score)", "setting": "[37]", "value": 0.55}, {"measurement": "glycan array binding signal (z-score)", "setting": "[38]", "value": -0.323}, {"measurement": "glycan array binding signal (z-score)", "setting": "[39]", "value": -0.231}, {"measurement": "glycan array binding signal (z-score)", "setting": "[40]", "value": -0.405}, {"measurement": "glycan array binding signal (z-score)", "setting": "[41]", "value": 0.184}, {"measurement": "glycan array binding signal (z-score)", "setting": "[42]", "value": -0.105}, {"measurement": "glycan array binding signal (z-score)", "setting": "[43]", "value": -0.354}, {"measurement": "glycan array binding signal (z-score)", "setting": "[44]", "value": -0.014}, {"measurement": "glycan array binding signal (z-score)", "setting": "[45]", "value": 0.557}]}
